The antibiotic and cytotoxicity screens of Wong et al. (2023)
The other results are listed elsewhere or left out.

What was measured:
HSkMC = human skeletal muscle cells; assay: cytotoxicity call (relative viability < 0.9); settings: 10 µM
HepG2 = assay: cytotoxicity call (relative viability < 0.9); settings: 10 µM
S. aureus RN4220 = assay: growth inhibition call (relative growth <= 0.2); settings: 50 µM

| SMILES | cytotoxicity call (HSkMC) | cytotoxicity call (HepG2) | growth inhibition call (S. aureus RN4220) |
| --- | --- | --- | --- |
| NC[C@@H](O)c1ccsc1 | inactive | inactive | inactive |
| C[C@@H]1CCCCO[C@H](CN(C)C(=O)Nc2ccc(C(F)(F)F)cc2)[C@H](C)CN([C@@H](C)CO)C(=O)c2cc(NC(=O)Nc3ccc(C(F)(F)F)cc3)ccc2O1 | inactive | inactive | inactive |
| CN[C@H]1CN(c2ccc3c(=O)c(C(=O)O)cn(-c4nccs4)c3n2)C[C@@H]1OC | inactive | inactive | inactive |
| CN1CCN(C(=O)C[C@@H]2C[C@H]3c4cc(NS(=O)(=O)c5ccc(F)cc5)ccc4O[C@H]3[C@@H](CO)O2)CC1 | inactive | inactive | inactive |
| C[C@@H]1CN([C@H](C)CO)C(=O)c2cc(NS(=O)(=O)c3ccc(Cl)cc3)ccc2O[C@@H]1CN(C)Cc1ccc(C(F)(F)F)cc1 | active | active | inactive |
| C[C@@H]1CN([C@H](C)CO)C(=O)c2cc(NS(=O)(=O)c3cn(C)cn3)ccc2O[C@@H](C)CCCCO[C@@H]1CN(C)CC1CC1 | inactive | inactive | inactive |
| C[C@H](CO)N1C[C@H](C)[C@@H](CN(C)C(=O)Cc2ccncc2)Oc2cc(C#CC3CCCCC3)ccc2S1(=O)=O | inactive | inactive | inactive |
| Cc1noc(C)c1S(=O)(=O)Nc1ccc2c(c1)C(=O)N([C@@H](C)CO)C[C@@H](C)[C@@H](CN(C)C(=O)NC(C)C)O2 | inactive | inactive | inactive |
| CN(C)CCc1cc(Br)c(OCCCNC(=O)/C=C/c2cc(Br)c(OCCN3CCCCC3)c(Br)c2)c(Br)c1 | inactive | active | inactive |
| CN(C)S(=O)(=O)N1CCC[C@H](C(N)=O)C1 | inactive | inactive | inactive |
| COc1ccc(NC(=O)Nc2ccc3c(c2)C(=O)N([C@H](C)CO)C[C@H](C)[C@H](CN(C)C(=O)Nc2ccc(OC)cc2)OCCCC[C@H](C)O3)cc1 | inactive | inactive | inactive |
| Cc1noc(C)c1NC(=O)N(C)C[C@@H]1Oc2ccc(NC(=O)Cn3cnnn3)cc2CC(=O)N([C@@H](C)CO)C[C@H]1C | inactive | inactive | inactive |
| CC(=O)O[C@H]1[C@H](O)[C@@H](O[C@@H]2C[C@](C)(O[C@H]3O[C@H](C)[C@H](O)[C@H](O)[C@@H]3O[C@@H]3O[C@H](C)[C@@H](O)[C@H](O)[C@@H]3O)O[C@@H]3CC[C@H]4C(C)(C)CCC[C@]4(C)[C@@H]23)O[C@@H](CO)[C@H]1O | inactive | inactive | inactive |
| CC(C)CC#Cc1ccc2c(c1)O[C@@H](CN(C)Cc1cncnc1)[C@@H](C)CN([C@@H](C)CO)S2(=O)=O | inactive | inactive | inactive |
| CCS(=O)(=O)NCC[C@H]1CC[C@@H](NS(=O)(=O)c2ccccc2C)[C@@H](CO)O1 | inactive | inactive | inactive |
| C[C@H](CO)N1C[C@H](C)[C@@H](CN(C)S(=O)(=O)c2ccc(F)cc2)Oc2ccc(NS(=O)(=O)c3ccc(F)cc3)cc2CC1=O | inactive | inactive | inactive |
| C[C@H]1CCCCO[C@@H](CN(C)C(=O)Nc2ccc3c(c2)OCO3)[C@@H](C)CN([C@@H](C)CO)C(=O)c2cc(NC(=O)Cc3ccccc3)ccc2O1 | inactive | inactive | inactive |
| CC(C)N1C[C@@H](CN(C)Cc2ccc(Oc3ccccc3)cc2)Oc2c(NC(=O)c3ccncc3)cccc2C1=O | inactive | active | inactive |
| COC(=O)c1c(CC[C@@H](CO)NC(=O)Nc2ccc(OC)cc2)oc(C(=O)Cc2ccccc2)c1C(=O)OC | inactive | inactive | inactive |
| O=C(CCc1ccc(O)cc1)c1c(O)cc(O)cc1OC1OC(CO)C(O)C(O)C1O (stereo not drawn) | inactive | inactive | inactive |
| COC(=O)c1ccc(O)c(O)c1 | inactive | inactive | inactive |
| COC1=CC(C)C2CC3OC(=O)CC4C(C)=C(OC)C(=O)C(C2(C)C1=O)C34C (stereo not drawn) | inactive | inactive | inactive |
| OCc1cn(Cc2ccccc2)nn1 | inactive | inactive | inactive |
| O=C(C1=C(O)C(=O)N(c2nccs2)[C@H]1c1cccc(Oc2ccccc2)c1)c1ccc2c(c1)OCCO2 | inactive | inactive | inactive |
| CN(C)CCCNC(=O)C[C@@H]1CC[C@H]2[C@H](COc3ccc(NC(=O)c4ccc5c(c4)OCO5)cc3C(=O)N2C)O1 | inactive | inactive | inactive |
| O=C(NC(Cc1cc(=O)[nH]c2ccccc12)C(=O)O)c1ccc(Cl)cc1 (stereo not drawn) | inactive | active | inactive |
